Measurements: PubChem BioAssay AID624170 (National Center for Advancing Translational Sciences (NCATS), 2012)
Among all 410,000 compounds or so, about 850 (0.21%) were called active. The shares of active, inactive and inconclusive entries below differ from those in the screen. The call rests on the fitted dose curve; in most records, active means well fitted inhibition curve with a large enough effect; inconclusive means small, poorly fitted or top-dose-only effect, or another doubt; inactive means no such curve, though single readings can be large or run the other way. A potency beside an inconclusive call is a rough fit, not a confirmed value.

The molecules below were run against Glutaminase kidney isoform, mitochondrial (Homo sapiens) (UniProt O94925) (assay: qHTS for Inhibitors of Glutaminase (GLS)). Details: GLS enzymatic activity, qHTS titration; series mostly up to 45.5 µM.
How it was run: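 Two-point fluorescence kinetic (t0, 30 min RT) for hKGA; glutamate detected via glutamate oxidase–HRP–Amplex Red. Substrate: 1 mM L-glutamine solution; buffer 45 mM KH2PO4, pH 8.2.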
Potency means the concentration at half of the fitted maximal effect; tags describe the fitted curve by direction and shape.

Chain of UniProt O94925 (O94925 whole entry, looked up, canonical isoform): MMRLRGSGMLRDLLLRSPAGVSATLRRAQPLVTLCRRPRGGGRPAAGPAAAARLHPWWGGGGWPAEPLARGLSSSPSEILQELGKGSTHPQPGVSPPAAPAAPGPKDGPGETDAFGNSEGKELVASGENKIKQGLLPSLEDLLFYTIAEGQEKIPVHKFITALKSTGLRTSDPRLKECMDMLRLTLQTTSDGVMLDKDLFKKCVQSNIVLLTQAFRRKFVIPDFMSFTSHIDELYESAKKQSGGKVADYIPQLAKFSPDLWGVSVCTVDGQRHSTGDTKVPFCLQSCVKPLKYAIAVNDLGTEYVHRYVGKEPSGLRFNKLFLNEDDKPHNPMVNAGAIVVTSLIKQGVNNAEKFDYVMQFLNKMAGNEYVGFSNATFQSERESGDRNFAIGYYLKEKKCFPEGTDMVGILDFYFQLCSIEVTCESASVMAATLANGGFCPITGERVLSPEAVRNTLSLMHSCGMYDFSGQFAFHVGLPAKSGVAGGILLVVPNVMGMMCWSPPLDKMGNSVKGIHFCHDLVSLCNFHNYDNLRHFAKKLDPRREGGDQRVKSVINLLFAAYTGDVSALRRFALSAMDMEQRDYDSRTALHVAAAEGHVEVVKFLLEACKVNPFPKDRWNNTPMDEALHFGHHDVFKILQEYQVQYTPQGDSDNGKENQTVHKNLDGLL

Potency, inconclusive:
O=C(NN=C1CCN(Cc2ccccc2)CC1)c1ccccc1O 11.2 µM [inhibitor, partial curve]
C=CCOc1ccc(CNc2ccc3[nH]c(=O)[nH]c3c2)cc1OC 17.8 µM [inhibitor, partial curve, poor fit]
O=C(NNC(=S)Nc1ccc(Br)cc1Cl)c1ccncc1 11.2 µM [inhibitor, partial curve]
O=C(O)CCn1cc(/C=C/C(=O)c2ccc(Cl)cc2)c(-c2cccc(Br)c2)n1 28.2 µM [inhibitor, single point]
CC(C)CCn1c(=O)c2ccccc2n2c(=S)[nH]nc12 35.5 µM [inhibitor, single point]
Cc1sc(N)c(C(=O)c2ccccc2)c1C 35.5 µM [inhibitor, single point]
CCOc1ccc2oc(=O)cc(CN3CCN(C(=O)c4cccc(Cl)c4)CC3)c2c1 31.6 µM [inhibitor, single point]
COC(=O)Cc1c(C(=O)OC)nnn1-c1ccc(OC)cc1 0.708 µM [inhibitor, full curve, poor fit]
CCN(CC)CCN(C(=O)Cn1nnc(-c2ccc(OC)c(OC)c2)n1)C(C(=O)NC1CCCC1)c1ccc(F)cc1 (stereo not given) 3.16 µM [inhibitor, single point]
COCCN(CC(=O)Nc1cccc(C)c1C)C(=O)c1cc2c(s1)CCC2 20 µM [inhibitor, single point]
CC1CN(C(=O)COC(=O)c2ccc(Cl)c(S(=O)(=O)N3CCCCC3)c2)CC(C)O1 (stereo not given) 5.01 µM [inhibitor, single point]
CCN(CC(=O)NC(C)C)C(=O)c1ccc(S(=O)(=O)N(C)c2ccccc2OC)cc1 35.5 µM [inhibitor, single point]
CSC(=NS(=O)(=O)c1ccc(N)cc1)NS(=O)(=O)c1cccs1 22.4 µM [inhibitor, single point]
CCn1c(Cc2ccccc2)nnc1SCC(=O)Nc1ccc(N)cc1 20 µM [inhibitor, single point]
O=C(COc1coc(CN2CCCc3ccccc32)cc1=O)Nc1ccc([N+](=O)[O-])cc1 35.5 µM [inhibitor, single point]
COc1ccc(-c2cc(C(=O)N3CCN(Cc4ccc5c(c4)OCO5)CC3)on2)cc1OC 31.6 µM [inhibitor, single point]
CC(C)[C@H](NC(=O)OCc1ccccc1)C(=O)OCC(=O)N1CCN(c2ccc(F)cc2)CC1 6.31 µM [inhibitor, single point]
O=C(NC12CC3CC(CC(C3)C1)C2)c1cnccn1 35.5 µM [inhibitor, single point]
Cc1cccc(C(C)C)c1NC(=O)c1cccnc1 35.5 µM [inhibitor, single point]
COC(=O)CCC(=O)OC1(C)C(=O)C2=COC(c3ccc(OC)cc3)=CC2=C(Br)C1=O (stereo not given) 35.5 µM [inhibitor, partial curve, poor fit]
C=CCn1c(-c2ccccc2)n[nH]c1=S 31.6 µM [inhibitor, single point]
Cc1ccc(C)c(CNC(=O)c2ccc3c(c2)nc2n3CCCCC2)c1 2.82 µM [inhibitor, full curve, poor fit]
C[N+]1(CCCCSc2ccc(O)cc2)CCCCC1 12.6 µM [inhibitor, partial curve, poor fit]
c1ccc(-c2noc(-c3ccc4c(c3)OCO4)n2)nc1 35.5 µM [inhibitor, single point]
COc1cc(/C=C2\CCc3c2nc2ccccc2c3C(=O)O)cc(OC)c1OC 11.2 µM [inhibitor, partial curve, poor fit]
Cc1nc2nc(SCC(=O)O)nn2c(C)c1Cc1c(F)cccc1Cl 11.2 µM [inhibitor, single point]
CSCCC1NC(=O)N(CC(=O)Nc2c(Cl)cc(Cl)cc2Cl)C1=O (stereo not given) 22.4 µM [inhibitor, single point]
O=C(O)c1cc2n(n1)C(C(F)(F)F)CC(c1ccccc1)N2 (stereo not given) 31.6 µM [inhibitor, single point]
Cn1c(N2CCN(c3ccccn3)CC2)nc2c1c(=O)n(Cc1ccccc1Cl)c(=O)n2C 3.55 µM [inhibitor, partial curve, poor fit]

Potency, active:
CCCCn1c(=O)c2ccccc2n2c(=S)[nH]nc12 12.6 µM

Potency, inactive:
CCOc1ccc(N(CC(=O)Nc2ccc(C)c(C)c2)S(C)(=O)=O)cc1
Fc1ccc(-c2nc3ccc(Br)cn3c2Cc2ccccc2)cc1
CSc1nc(C)c2c(n1)N(c1ccc(F)cc1)CC2
COc1cc(C=C(c2nc3ccccc3s2)c2nc3ccccc3s2)cc(OC)c1O
CN(C)Cc1c(C(=O)N/N=C/c2ccc(OCc3ccc(F)cc3)cc2)nnn1-c1nonc1N
COc1cc(OC)c(N(C)C(=O)c2cc3c(s2)-c2ccccc2S(=O)(=O)C3)cc1Cl
OCC1(CO)COC(C(Cl)(Cl)Cl)OC1
NC(=Nc1ccc(N)cc1)C(N)=Nc1ccc(N)cc1
C=CCc1c(C)nc(-c2ccccc2)nc1N/N=C(\C)c1ccccc1
O=C(O)CP(=O)(O)O
CCOc1ccc(C(=O)N/N=C/c2ccc(-c3ccc(S(=O)(=O)Nc4ncccn4)cc3)o2)cc1
COc1ccc(OC)c(NC(=O)c2cc(-c3cc(C)cc(C)c3O)n[nH]2)c1
CCN(C#N)c1nc(NC(C)C)nc(NC(C)C)n1
COc1ccccc1/C=C/C1=NC(=C\C=C/c2ccccc2)/C(=O)O1
N#CC(CC(=O)OCc1ccccc1)NC(=O)OCc1ccccc1 (stereo not given)
